T1: RBFOX1 RRM (Homo sapiens, UniProt Q9NWB1 109-208)
T1 sequence: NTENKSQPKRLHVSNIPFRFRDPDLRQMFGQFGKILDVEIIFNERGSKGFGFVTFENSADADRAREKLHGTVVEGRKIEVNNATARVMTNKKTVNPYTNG

B1: CUGAUAU (DNA:RNA)
RNA: GGGAGACCGGAAUUCAGAUUGUCCCUGAUAUUUAAAUCCCGUCGUAGCCACCA
DNA 1: CAATCTGAATTCCGGTCTCCC
DNA 2: TGGTGGCTACGACGGGATT
B2: GAAAACG (DNA:RNA)
RNA: B1 RNA with C25G, U26A, G27A, U29A, A30C, U31G
DNA 1: CAATCTGAATTCCGGTCTCCC
DNA 2: TGGTGGCTACGACGGGATT
B3: UAGCUUG (DNA:RNA)
RNA: B1 RNA with C25U, U26A, A28C, A30U, U31G
DNA 1: CAATCTGAATTCCGGTCTCCC
DNA 2: TGGTGGCTACGACGGGATT
B4: GCCGCAC (DNA:RNA)
RNA: B1 RNA with C25G, U26C, G27C, A28G, U29C, U31C
DNA 1: CAATCTGAATTCCGGTCTCCC
DNA 2: TGGTGGCTACGACGGGATT
B5: CUGUAAC (DNA:RNA)
RNA: B1 RNA with A28U, U29A, U31C
DNA 1: CAATCTGAATTCCGGTCTCCC
DNA 2: TGGTGGCTACGACGGGATT
B6: CUGCCCA (DNA:RNA)
RNA: B1 RNA with A28C, U29C, A30C, U31A
DNA 1: CAATCTGAATTCCGGTCTCCC
DNA 2: TGGTGGCTACGACGGGATT
B7: CGUGUAU (DNA:RNA)
RNA: B1 RNA with U26G, G27U, A28G
DNA 1: CAATCTGAATTCCGGTCTCCC
DNA 2: TGGTGGCTACGACGGGATT
B8: ACUACGC (DNA:RNA)
RNA: B1 RNA with C25A, U26C, G27U, U29C, A30G, U31C
DNA 1: CAATCTGAATTCCGGTCTCCC
DNA 2: TGGTGGCTACGACGGGATT
B9: GAAUCAG (DNA:RNA)
RNA: B1 RNA with C25G, U26A, G27A, A28U, U29C, U31G
DNA 1: CAATCTGAATTCCGGTCTCCC
DNA 2: TGGTGGCTACGACGGGATT
B10: CAGGGGA (DNA:RNA)
RNA: B1 RNA with U26A, A28G, U29G, A30G, U31A
DNA 1: CAATCTGAATTCCGGTCTCCC
DNA 2: TGGTGGCTACGACGGGATT
B11: UCAUGCG (DNA:RNA)
RNA: GGGAGACCGGAAUUCAGAUUGUCCUCAUGCGUUAAAUCCCGUCGUAGCCACCA
DNA 1: CAATCTGAATTCCGGTCTCCC
DNA 2: TGGTGGCTACGACGGGATT
B12: AUCCAGU (DNA:RNA)
RNA: B1 RNA with C25A, G27C, A28C, U29A, A30G
DNA 1: CAATCTGAATTCCGGTCTCCC
DNA 2: TGGTGGCTACGACGGGATT
B13: AGUGGAA (DNA:RNA)
RNA: B1 RNA with C25A, U26G, G27U, A28G, U29G, U31A
DNA 1: CAATCTGAATTCCGGTCTCCC
DNA 2: TGGTGGCTACGACGGGATT
B14: AUUCACG (DNA:RNA)
RNA: B11 RNA with U25A, C26U, A27U, U28C, G29A
DNA 1: CAATCTGAATTCCGGTCTCCC
DNA 2: TGGTGGCTACGACGGGATT
B15: CUAAGAG (DNA:RNA)
RNA: B1 RNA with G27A, U29G, U31G
DNA 1: CAATCTGAATTCCGGTCTCCC
DNA 2: TGGTGGCTACGACGGGATT
B16: UGAAACC (DNA:RNA)
RNA: B11 RNA with C26G, U28A, G29A, G31C
DNA 1: CAATCTGAATTCCGGTCTCCC
DNA 2: TGGTGGCTACGACGGGATT
B17: UGUGUUA (DNA:RNA)
RNA: B1 RNA with C25U, U26G, G27U, A28G, A30U, U31A
DNA 1: CAATCTGAATTCCGGTCTCCC
DNA 2: TGGTGGCTACGACGGGATT
B18: UCACACG (DNA:RNA)
RNA: B11 RNA with U28C, G29A
DNA 1: CAATCTGAATTCCGGTCTCCC
DNA 2: TGGTGGCTACGACGGGATT
B19: CUCUCUU (DNA:RNA)
RNA: B1 RNA with G27C, A28U, U29C, A30U
DNA 1: CAATCTGAATTCCGGTCTCCC
DNA 2: TGGTGGCTACGACGGGATT
B20: AUAUCUC (DNA:RNA)
RNA: B11 RNA with U25A, C26U, G29C, C30U, G31C
DNA 1: CAATCTGAATTCCGGTCTCCC
DNA 2: TGGTGGCTACGACGGGATT
B21: CGUUUAA (DNA:RNA)
RNA: B1 RNA with U26G, G27U, A28U, U31A
DNA 1: CAATCTGAATTCCGGTCTCCC
DNA 2: TGGTGGCTACGACGGGATT
B22: UUGAUUG (DNA:RNA)
RNA: B1 RNA with C25U, A30U, U31G
DNA 1: CAATCTGAATTCCGGTCTCCC
DNA 2: TGGTGGCTACGACGGGATT
B23: UGACCAA (DNA:RNA)
RNA: B11 RNA with C26G, U28C, G29C, C30A, G31A
DNA 1: CAATCTGAATTCCGGTCTCCC
DNA 2: TGGTGGCTACGACGGGATT
B24: AUGUGAC (DNA:RNA)
RNA: B1 RNA with C25A, A28U, U29G, U31C
DNA 1: CAATCTGAATTCCGGTCTCCC
DNA 2: TGGTGGCTACGACGGGATT
B25: AUGUCCU (DNA:RNA)
RNA: B1 RNA with C25A, A28U, U29C, A30C
DNA 1: CAATCTGAATTCCGGTCTCCC
DNA 2: TGGTGGCTACGACGGGATT
B26: CCACUGU (DNA:RNA)
RNA: B1 RNA with U26C, G27A, A28C, A30G
DNA 1: CAATCTGAATTCCGGTCTCCC
DNA 2: TGGTGGCTACGACGGGATT
B27: UACUCUC (DNA:RNA)
RNA: B11 RNA with C26A, A27C, G29C, C30U, G31C
DNA 1: CAATCTGAATTCCGGTCTCCC
DNA 2: TGGTGGCTACGACGGGATT
B28: UGGCUUU (DNA:RNA)
RNA: B1 RNA with C25U, U26G, A28C, A30U
DNA 1: CAATCTGAATTCCGGTCTCCC
DNA 2: TGGTGGCTACGACGGGATT
B29: CCACACU (DNA:RNA)
RNA: B11 RNA with U25C, U28C, G29A, G31U
DNA 1: CAATCTGAATTCCGGTCTCCC
DNA 2: TGGTGGCTACGACGGGATT
B30: UCCUCGA (DNA:RNA)
RNA: B11 RNA with A27C, G29C, C30G, G31A
DNA 1: CAATCTGAATTCCGGTCTCCC
DNA 2: TGGTGGCTACGACGGGATT
B31: UUAUAAG (DNA:RNA)
RNA: B11 RNA with C26U, G29A, C30A
DNA 1: CAATCTGAATTCCGGTCTCCC
DNA 2: TGGTGGCTACGACGGGATT

Where a chain is given by its changes, count along the chain named. This is one part of the list.

For this assay, the target named is T1, RBFOX1 RRM. In words: EMSA; HiTS-Eq, 1 nM pool, 10 min; buffer printed only for the single-RNA assays: 10 mM Tris pH 7.5, 150 mM NaCl, 3.4 mM EDTA, 0.001% NP-40, 30 C. Particulars: tags: His6 N-terminal (pET28a); label: 5' 32P. The method, boiled down: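 These values rest on relative association constants, computed from read-count changes of each RNA species versus the control reaction and normalised to the cognate motif. Reads came from free RNA recovered by 8% native PAGE after purified RbFox RRM (wild type or mutant) at increasing concentrations was equilibrated for 10 min in 50 µL with 1 nM of a 5′-radiolabelled pool with 7 randomized nucleotides and DNA-annealed flanks.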
Background: Mobility shift assays separate free from complexed probe on a gel.
Take B1: the binding signal was 0.00562 KA relative to UGCAUGU.
For B2, the binding signal was 0.0047 KA relative to UGCAUGU.
For B3 the value was 0.0445 KA relative to UGCAUGU.
Regarding B4, the binding signal is 0.0122 KA relative to UGCAUGU.
Consider B5, for which the binding signal is 0.0121 KA relative to UGCAUGU.
Turning to B6, the binding signal is 0.00355 KA relative to UGCAUGU.
For the molecule B7, the binding signal was 0.00724 KA relative to UGCAUGU.
With B8, the binding signal is 0.00303 KA relative to UGCAUGU.
The same measure for B9: 0.00941 KA relative to UGCAUGU; for B10: 0.00636 KA relative to UGCAUGU; for B11: 0.0151 KA relative to UGCAUGU.
As to B12, the binding signal was 0.000423 KA relative to UGCAUGU.
Turning to B13, the binding signal is 0.00598 KA relative to UGCAUGU.
In the case of B14, the binding signal is 0.00342 KA relative to UGCAUGU.
The same measure for B15: 0.00974 KA relative to UGCAUGU.
With B16, the binding signal was 0.00628 KA relative to UGCAUGU.
The same measure for B17: 0.0157 KA relative to UGCAUGU.
B18: the binding signal is 0.00339 KA relative to UGCAUGU.
Turning to B19, the binding signal was 0.00585 KA relative to UGCAUGU.
Regarding B20, the binding signal is 0.00182 KA relative to UGCAUGU.
As for B21, the binding signal was 0.006 KA relative to UGCAUGU.
For B22, the binding signal was 0.0356 KA relative to UGCAUGU.
Consider B23, for which the binding signal is 0.00452 KA relative to UGCAUGU.
For the molecule B24, the binding signal is 0.00423 KA relative to UGCAUGU.
The same measure for B25: 0.00241 KA relative to UGCAUGU; for B26: 0.00469 KA relative to UGCAUGU; for B27: 0.00468 KA relative to UGCAUGU.
As for B28, the binding signal was 0.0207 KA relative to UGCAUGU.
On to B29, for which the binding signal is 0.00434 KA relative to UGCAUGU.
For B30, the binding signal was 0.00976 KA relative to UGCAUGU.
For the molecule B31, the binding signal was 0.00929 KA relative to UGCAUGU.

Source of the values: publication PMC9911399, “Two distinct binding modes provide the RNA-binding protein RbFox with extraordinary sequence specificity”.
